{
  "sequences": {"note": "By UniProt entry, the sequences of proteins in these tests, tags left out. Where a name states a change or a piece, a line headed by the entry shows the natural chain unless it says otherwise. Chains listed by the source or under a name are the forms on record and can include a tag or linker.", "UniProt Q9H9B1": "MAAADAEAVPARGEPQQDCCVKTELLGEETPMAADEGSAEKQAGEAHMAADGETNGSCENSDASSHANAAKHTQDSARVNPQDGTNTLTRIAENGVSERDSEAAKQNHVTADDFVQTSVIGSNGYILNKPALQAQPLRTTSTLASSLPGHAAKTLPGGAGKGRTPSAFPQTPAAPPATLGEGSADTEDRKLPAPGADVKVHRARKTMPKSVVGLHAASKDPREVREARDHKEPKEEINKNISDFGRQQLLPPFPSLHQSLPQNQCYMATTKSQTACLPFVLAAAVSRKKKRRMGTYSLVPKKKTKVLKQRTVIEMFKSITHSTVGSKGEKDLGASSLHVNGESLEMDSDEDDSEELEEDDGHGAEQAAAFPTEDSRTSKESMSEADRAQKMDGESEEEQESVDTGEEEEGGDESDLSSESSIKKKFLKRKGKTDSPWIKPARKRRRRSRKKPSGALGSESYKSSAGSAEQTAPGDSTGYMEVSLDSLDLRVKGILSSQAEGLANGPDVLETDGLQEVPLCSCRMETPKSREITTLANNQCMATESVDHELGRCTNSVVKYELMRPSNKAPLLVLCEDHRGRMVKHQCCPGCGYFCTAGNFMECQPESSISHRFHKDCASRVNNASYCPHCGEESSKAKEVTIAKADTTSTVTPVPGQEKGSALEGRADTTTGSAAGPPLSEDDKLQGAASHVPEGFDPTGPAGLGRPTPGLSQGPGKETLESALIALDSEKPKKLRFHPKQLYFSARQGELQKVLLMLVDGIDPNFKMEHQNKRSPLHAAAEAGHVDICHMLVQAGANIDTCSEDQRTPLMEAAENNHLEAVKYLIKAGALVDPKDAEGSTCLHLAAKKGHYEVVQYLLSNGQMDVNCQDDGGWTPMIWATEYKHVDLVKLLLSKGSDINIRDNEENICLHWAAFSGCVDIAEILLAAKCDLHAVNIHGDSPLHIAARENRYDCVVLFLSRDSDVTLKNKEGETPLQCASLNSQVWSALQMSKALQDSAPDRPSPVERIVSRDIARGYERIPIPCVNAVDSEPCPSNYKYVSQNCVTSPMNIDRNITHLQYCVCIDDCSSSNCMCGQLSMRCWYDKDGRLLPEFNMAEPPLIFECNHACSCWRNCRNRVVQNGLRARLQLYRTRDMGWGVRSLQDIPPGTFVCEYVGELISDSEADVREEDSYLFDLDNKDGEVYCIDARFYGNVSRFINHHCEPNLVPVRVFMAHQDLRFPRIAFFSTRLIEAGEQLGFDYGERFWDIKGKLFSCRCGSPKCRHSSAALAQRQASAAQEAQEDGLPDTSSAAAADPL", "UniProt Q9Z148": "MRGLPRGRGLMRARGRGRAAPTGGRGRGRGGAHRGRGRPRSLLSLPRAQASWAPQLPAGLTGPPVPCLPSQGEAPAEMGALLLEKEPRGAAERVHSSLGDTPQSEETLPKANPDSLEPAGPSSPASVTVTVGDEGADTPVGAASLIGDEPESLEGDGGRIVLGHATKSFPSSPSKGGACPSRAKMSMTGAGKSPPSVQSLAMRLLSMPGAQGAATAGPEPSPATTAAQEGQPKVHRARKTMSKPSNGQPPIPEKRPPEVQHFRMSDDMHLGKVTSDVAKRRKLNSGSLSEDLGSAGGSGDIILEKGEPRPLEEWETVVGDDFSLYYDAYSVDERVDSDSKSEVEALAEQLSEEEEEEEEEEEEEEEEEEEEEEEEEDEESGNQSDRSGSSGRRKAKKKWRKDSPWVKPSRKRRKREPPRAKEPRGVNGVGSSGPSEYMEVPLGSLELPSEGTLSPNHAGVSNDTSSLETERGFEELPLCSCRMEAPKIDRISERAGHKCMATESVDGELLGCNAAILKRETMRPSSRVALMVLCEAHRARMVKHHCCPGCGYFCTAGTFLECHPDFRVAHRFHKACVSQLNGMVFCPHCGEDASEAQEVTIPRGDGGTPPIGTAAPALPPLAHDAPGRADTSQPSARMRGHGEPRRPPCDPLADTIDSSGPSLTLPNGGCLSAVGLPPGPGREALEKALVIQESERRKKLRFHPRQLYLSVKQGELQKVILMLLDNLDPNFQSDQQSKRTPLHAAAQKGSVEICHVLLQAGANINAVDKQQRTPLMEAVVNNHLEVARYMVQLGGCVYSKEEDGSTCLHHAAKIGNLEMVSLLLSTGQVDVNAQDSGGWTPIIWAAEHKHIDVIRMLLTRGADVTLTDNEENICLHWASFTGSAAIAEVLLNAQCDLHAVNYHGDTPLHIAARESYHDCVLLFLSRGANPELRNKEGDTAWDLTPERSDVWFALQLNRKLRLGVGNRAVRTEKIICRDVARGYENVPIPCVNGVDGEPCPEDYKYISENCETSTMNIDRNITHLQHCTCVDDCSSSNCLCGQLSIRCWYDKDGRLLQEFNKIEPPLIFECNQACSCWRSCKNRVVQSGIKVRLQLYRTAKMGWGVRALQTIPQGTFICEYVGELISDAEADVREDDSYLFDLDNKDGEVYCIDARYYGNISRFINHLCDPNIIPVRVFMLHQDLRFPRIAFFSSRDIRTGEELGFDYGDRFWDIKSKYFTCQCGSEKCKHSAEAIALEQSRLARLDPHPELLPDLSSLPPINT", "UniProt Q9BZ95": "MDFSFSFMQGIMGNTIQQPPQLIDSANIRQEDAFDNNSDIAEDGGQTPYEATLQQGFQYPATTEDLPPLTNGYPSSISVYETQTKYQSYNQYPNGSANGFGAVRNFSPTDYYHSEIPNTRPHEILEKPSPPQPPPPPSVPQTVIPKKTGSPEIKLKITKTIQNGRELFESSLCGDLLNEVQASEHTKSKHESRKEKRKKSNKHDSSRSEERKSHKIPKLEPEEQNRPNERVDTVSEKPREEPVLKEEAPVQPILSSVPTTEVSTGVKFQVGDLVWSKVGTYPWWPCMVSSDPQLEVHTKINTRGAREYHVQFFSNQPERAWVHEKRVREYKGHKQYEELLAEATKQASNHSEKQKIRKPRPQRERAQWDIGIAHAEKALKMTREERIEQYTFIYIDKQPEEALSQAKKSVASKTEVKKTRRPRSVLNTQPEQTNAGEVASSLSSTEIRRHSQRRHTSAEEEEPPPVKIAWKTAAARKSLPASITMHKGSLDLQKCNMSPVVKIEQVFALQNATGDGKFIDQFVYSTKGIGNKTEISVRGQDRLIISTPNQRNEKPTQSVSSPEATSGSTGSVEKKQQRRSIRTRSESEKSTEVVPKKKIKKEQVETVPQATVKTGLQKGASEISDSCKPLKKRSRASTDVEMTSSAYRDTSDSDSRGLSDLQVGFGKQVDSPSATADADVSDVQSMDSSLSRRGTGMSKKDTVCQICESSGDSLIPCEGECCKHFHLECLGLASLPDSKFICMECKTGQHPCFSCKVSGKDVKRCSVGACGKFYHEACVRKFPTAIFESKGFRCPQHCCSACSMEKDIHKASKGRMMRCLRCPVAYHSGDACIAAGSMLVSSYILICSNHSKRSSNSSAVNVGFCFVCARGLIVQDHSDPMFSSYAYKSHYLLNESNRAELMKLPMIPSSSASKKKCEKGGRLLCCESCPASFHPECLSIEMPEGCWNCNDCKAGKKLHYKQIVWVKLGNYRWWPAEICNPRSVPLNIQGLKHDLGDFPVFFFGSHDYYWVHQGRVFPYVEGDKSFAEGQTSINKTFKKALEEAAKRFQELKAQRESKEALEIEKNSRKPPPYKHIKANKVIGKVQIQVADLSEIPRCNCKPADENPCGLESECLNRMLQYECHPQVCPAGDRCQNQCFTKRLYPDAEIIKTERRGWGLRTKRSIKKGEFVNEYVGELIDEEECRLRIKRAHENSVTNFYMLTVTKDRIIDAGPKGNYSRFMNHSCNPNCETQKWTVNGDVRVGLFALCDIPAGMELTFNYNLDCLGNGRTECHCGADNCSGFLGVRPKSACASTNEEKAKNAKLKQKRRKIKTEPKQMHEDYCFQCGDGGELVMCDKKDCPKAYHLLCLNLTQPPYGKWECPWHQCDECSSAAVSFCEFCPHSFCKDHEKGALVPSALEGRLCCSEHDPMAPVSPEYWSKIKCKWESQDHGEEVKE", "EGFP-NSD3L delta PWWP (PWWP-deleted NSD3-long isoform fused with EGFP) (Q9BZ95, form named)": "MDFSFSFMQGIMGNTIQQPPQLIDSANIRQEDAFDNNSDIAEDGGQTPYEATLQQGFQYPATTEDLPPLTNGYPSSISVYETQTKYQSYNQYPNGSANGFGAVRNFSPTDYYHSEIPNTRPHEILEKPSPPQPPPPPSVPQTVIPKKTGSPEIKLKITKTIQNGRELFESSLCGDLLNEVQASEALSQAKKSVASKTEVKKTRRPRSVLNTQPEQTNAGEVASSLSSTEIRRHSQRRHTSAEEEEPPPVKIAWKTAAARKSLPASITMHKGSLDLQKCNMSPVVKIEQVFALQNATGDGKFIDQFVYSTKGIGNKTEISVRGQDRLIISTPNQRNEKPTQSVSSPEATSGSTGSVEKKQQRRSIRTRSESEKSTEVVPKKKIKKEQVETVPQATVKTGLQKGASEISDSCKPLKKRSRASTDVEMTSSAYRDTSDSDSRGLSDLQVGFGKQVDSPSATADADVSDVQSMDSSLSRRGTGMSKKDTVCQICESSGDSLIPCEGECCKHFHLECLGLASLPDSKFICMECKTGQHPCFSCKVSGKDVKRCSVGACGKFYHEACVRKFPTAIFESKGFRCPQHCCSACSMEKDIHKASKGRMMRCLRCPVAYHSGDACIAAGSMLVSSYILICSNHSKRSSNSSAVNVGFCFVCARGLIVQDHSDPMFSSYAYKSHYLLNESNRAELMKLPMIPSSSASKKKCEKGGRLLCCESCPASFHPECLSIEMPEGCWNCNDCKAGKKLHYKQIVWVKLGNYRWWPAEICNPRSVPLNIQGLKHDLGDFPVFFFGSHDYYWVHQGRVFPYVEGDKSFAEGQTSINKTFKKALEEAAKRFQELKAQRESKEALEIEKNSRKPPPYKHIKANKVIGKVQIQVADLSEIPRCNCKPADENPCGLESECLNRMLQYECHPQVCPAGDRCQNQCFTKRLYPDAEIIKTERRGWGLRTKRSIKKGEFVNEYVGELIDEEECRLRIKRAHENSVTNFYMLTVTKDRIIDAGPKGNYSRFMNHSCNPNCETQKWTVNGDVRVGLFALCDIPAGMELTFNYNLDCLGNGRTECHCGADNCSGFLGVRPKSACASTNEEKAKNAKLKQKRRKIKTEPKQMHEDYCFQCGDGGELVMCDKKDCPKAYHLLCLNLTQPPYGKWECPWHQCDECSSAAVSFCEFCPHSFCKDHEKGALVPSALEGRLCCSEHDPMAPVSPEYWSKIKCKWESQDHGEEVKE", "NSD3-short isoform (NSD3S), endogenous in V-H9-hESCs (Q9BZ95-3, form named)": "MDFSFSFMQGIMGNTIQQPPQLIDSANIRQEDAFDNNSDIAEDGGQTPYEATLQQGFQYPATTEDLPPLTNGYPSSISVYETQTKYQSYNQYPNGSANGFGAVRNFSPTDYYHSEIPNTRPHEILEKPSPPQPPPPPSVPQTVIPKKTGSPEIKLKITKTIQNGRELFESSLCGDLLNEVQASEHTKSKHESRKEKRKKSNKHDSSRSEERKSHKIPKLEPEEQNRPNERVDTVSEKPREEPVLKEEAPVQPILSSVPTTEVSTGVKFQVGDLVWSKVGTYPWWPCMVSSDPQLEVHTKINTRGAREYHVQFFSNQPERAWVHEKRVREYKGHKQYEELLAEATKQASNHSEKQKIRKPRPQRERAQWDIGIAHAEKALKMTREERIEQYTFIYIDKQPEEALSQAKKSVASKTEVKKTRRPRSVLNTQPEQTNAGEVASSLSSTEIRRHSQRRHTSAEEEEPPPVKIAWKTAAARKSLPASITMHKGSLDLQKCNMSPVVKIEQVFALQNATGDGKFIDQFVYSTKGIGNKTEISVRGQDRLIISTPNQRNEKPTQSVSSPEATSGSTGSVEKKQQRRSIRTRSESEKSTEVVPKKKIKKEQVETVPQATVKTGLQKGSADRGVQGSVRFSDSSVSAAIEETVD"},
  "source": "paper PMC11707394",
  "key": {"V5-EHMT1": {"target": "V5-EHMT1 (UniProt Q9H9B1)", "experiment": "co-IP; 293 cells co-transfected with tagged plasmids; IP by anti-V5, anti-Flag or anti-GFP antibody on Protein A or G Dynabeads, lysate overnight at 4°C; immunoblot for the partner's tag or NSD3"}, "Flag-EHMT2 (mouse)": {"target": "Flag-EHMT2 (mouse) (UniProt Q9Z148)", "experiment": "co-IP; 293 cells co-transfected with tagged plasmids; IP by anti-V5, anti-Flag or anti-GFP antibody on Protein A or G Dynabeads, lysate overnight at 4°C; immunoblot for the partner's tag or NSD3"}, "[1]": {"target": "NSD3, endogenous in 293 cells (human (endogenous in HEK293)) (UniProt Q9BZ95)", "experiment": "co-IP; endogenous proteins of 293 cells; IP with anti-EHMT1, anti-EHMT2 or anti-NSD3 antibody, immunoblot for the partner"}, "[2]": {"target": "EGFP-NSD3L (NSD3-long isoform fused with EGFP) (human) (UniProt Q9BZ95)", "experiment": "co-IP; 293 cells co-transfected with tagged plasmids; IP by anti-V5, anti-Flag or anti-GFP antibody on Protein A or G Dynabeads, lysate overnight at 4°C; immunoblot for the partner's tag or NSD3"}, "[3]": {"target": "EGFP-NSD3L delta PWWP (PWWP-deleted NSD3-long isoform fused with EGFP) (human) (UniProt Q9BZ95)", "experiment": "co-IP; 293 cells co-transfected with tagged plasmids; IP by anti-V5, anti-Flag or anti-GFP antibody on Protein A or G Dynabeads, lysate overnight at 4°C; immunoblot for the partner's tag or NSD3"}, "[4]": {"target": "EHMT2-GFP (mouse EHMT2 full length in EGFPC1) (mouse) (UniProt Q9Z148)", "experiment": "co-IP; 293 cells co-transfected with tagged plasmids; IP by anti-V5, anti-Flag or anti-GFP antibody on Protein A or G Dynabeads, lysate overnight at 4°C; immunoblot for the partner's tag or NSD3"}, "[5]": {"target": "EHMT1, endogenous in 293 cells (human (endogenous in HEK293)) (UniProt Q9H9B1)", "experiment": "co-IP; endogenous proteins of 293 cells; IP with anti-EHMT1, anti-EHMT2 or anti-NSD3 antibody, immunoblot for the partner"}, "[6]": {"target": "EHMT1 (euchromatic histone methyltransferase 1), endogenous in V-H9-hESCs (human (endogenous in V-H9-hESC)) (UniProt Q9H9B1)", "experiment": "co-IP; endogenous proteins; anti-EHMT1 or anti-EHMT2 antibody on Protein A or G Dynabeads, V-H9-hESC lysate overnight at 4°C; immunoblot with anti-NSD3"}},
  "note": "Results are given in words; binding and its absence hold for the method and conditions named. Binding seen in cells or lysates may run through a third protein. Some results given as binding are weak or reduced against the parent protein; the word gives no strength.",
  "data": [
    {"substance": "EGFP-NSD3L (NSD3-long isoform fused with EGFP) (from UniProt Q9BZ95 1-1437)", "values": [
      {"measurement": "binding", "setting": "V5-EHMT1", "result": "binds"},
      {"measurement": "binding", "setting": "Flag-EHMT2 (mouse)", "result": "binds"}
    ]},
    {"substance": "EHMT1, endogenous in 293 cells (from UniProt Q9H9B1 1-1298)", "values": [
      {"measurement": "binding", "setting": "[1]", "result": "binds"}
    ]},
    {"substance": "Flag-EHMT2 (from UniProt Q9Z148 1-1263)", "values": [
      {"measurement": "binding", "setting": "[2]", "result": "binds"},
      {"measurement": "binding", "setting": "[3]", "result": "binds weakly"}
    ]},
    {"substance": "Flag-NSD3S (NSD3-short isoform, Flag tagged) (from UniProt Q9BZ95-3 1-645)", "values": [
      {"measurement": "binding", "setting": "V5-EHMT1", "result": "binds"},
      {"measurement": "binding", "setting": "[4]", "result": "binds"}
    ]},
    {"substance": "N-term NSD3 (1–384) (from UniProt Q9BZ95 1-384) (domain or fragment)", "values": [
      {"measurement": "binding", "setting": "Flag-EHMT2 (mouse)", "result": "binds"}
    ]},
    {"substance": "NSD3 N-term (1–173) domain (from UniProt Q9BZ95 1-173) (domain or fragment)", "values": [
      {"measurement": "binding", "setting": "Flag-EHMT2 (mouse)", "result": "no binding"}
    ]},
    {"substance": "NSD3, endogenous in 293 cells (from UniProt Q9BZ95 1-1437)", "values": [
      {"measurement": "binding", "setting": "[5]", "result": "binds"}
    ]},
    {"substance": "NSD3-long isoform (NSD3L), endogenous in V-H9-hESCs (from UniProt Q9BZ95 1-1437)", "values": [
      {"measurement": "binding", "setting": "[6]", "result": "binds"}
    ]},
    {"substance": "NSD3-short isoform (NSD3S), endogenous in V-H9-hESCs (from UniProt Q9BZ95-3 1-645)", "values": [
      {"measurement": "binding", "setting": "[6]", "result": "binds"}
    ]}
  ]
}
